Results reported in the supplement of paper PMC9446081.
Out of some 39,000 compounds screened, about 220 (0.56%) showed activity. The list shows a part of the results.

System: Escherichia coli K-12 BW25113
Test: relative growth (OD600 normalised to plate interquartile mean) (fraction); higher = less growth inhibition, active = 0.2 or less
Conditions: 50 µM; LB; incubation time: overnight (16-24 h)
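Further: static incubation at 37 °C against the wild-type strain, values averaged over two biological replicates.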

Structure (SMILES)	relative growth
O=C(C[C@H]1C[C@@H]2c3cc(NC(=O)NC4CCCC4)ccc3O[C@@H]2[C@H](CO)O1)NCc1ccc(Oc2ccccc2)cc1	inactive: 1.02
C[C@H]1CN([C@@H](C)CO)C(=O)Cc2cc(NC(=O)Nc3ccc(C(F)(F)F)cc3)ccc2O[C@@H]1CN(C)C(=O)Nc1ccccc1	inactive: 0.982
C[C@@H]1CCCCO[C@@H](CN(C)C(=O)C2CCCCC2)[C@@H](C)CN([C@@H](C)CO)C(=O)c2cc(NC(=O)Nc3ccc4c(c3)OCO4)ccc2O1	inactive: 1.03
COc1ccc(NC(=O)Nc2cccc3c2O[C@@H](CN(C)CC2CCCCC2)[C@@H](C)CN([C@@H](C)CO)C3=O)cc1	inactive: 1
NC(=O)NC1CCCCC1	inactive: 0.973
C[C@H](CO)N1C[C@H](C)[C@H](CN(C)C(=O)C2CCOCC2)Oc2ncc(-c3cccc(C#N)c3)cc2C1=O	inactive: 1.01
c1c[nH]cn1	inactive: 0.997
C[C@@H]1CN([C@H](C)CO)C(=O)c2cc(NC(=O)NC3CCCCC3)ccc2O[C@@H](C)CCCCO[C@@H]1CN(C)Cc1ccc(Cl)c(Cl)c1	inactive: 1.03
C[C@@H]1CCCCO[C@H](CN(C)Cc2ccncc2)[C@@H](C)CN([C@H](C)CO)C(=O)c2cc(NC(=O)Cc3ccccc3)ccc2O1	inactive: 1.02
C[C@@H]1CN([C@H](C)CO)C(=O)c2cccc(NC(=O)Nc3cccc4ccccc34)c2O[C@H]1CN(C)S(=O)(=O)c1cccs1	inactive: 0.991
CC(=O)NCCCC[C@@H]1NC(=O)[C@@H]2C[C@H](C(=O)NCCCCCCNC(=O)CS)[C@H](c3ccc(O)cc3)N2C1=O	inactive: 1
CC(C)NC(=O)N(C)C[C@H]1OCCCC[C@H](C)Oc2ccc(NC(=O)Nc3ccc(F)cc3)cc2C(=O)N([C@H](C)CO)C[C@@H]1C	inactive: 0.882
Cc1ccc(S(=O)(=O)Nc2ccc3c(c2)C(=O)N([C@@H](C)CO)C[C@H](C)[C@H](CN(C)S(=O)(=O)c2c(C)noc2C)O3)cc1	inactive: 0.989
C[C@H](CO)N1C[C@H](C)[C@@H](CN(C)C(=O)NC2CCCCC2)OCCCC[C@H](C)Oc2ccc(NC(=O)Nc3ccc(F)cc3)cc2C1=O	inactive: 0.921
Cc1ccc(S(=O)(=O)Nc2ccc3c(c2)C(=O)N([C@H](C)CO)C[C@H](C)[C@H](CN(C)S(=O)(=O)c2ccc(F)cc2)O3)cc1	inactive: 1.02
CN(C)CCCNC(=O)C[C@@H]1C=C[C@@H](NC(=O)Cc2cccnc2)[C@@H](CO)O1	inactive: 0.989
COc1ccc(NC(=O)N(C)C[C@H]2Oc3ccc(NS(=O)(=O)c4cn(C)cn4)cc3CC(=O)N([C@@H](C)CO)C[C@H]2C)cc1	inactive: 0.985
C[C@@H]1CN([C@H](C)CO)C(=O)c2cc(C#CC3(O)CCCC3)cnc2O[C@H]1CN(C)S(C)(=O)=O	inactive: 0.993
O=C(C[C@H]1CC[C@@H]2[C@H](COC[C@H](O)CN2Cc2ccccc2F)O1)N[C@H]1CCN(Cc2ccccc2)C1	inactive: 1.03
C[C@H](CO)N1C[C@H](C)[C@@H](CN(C)Cc2ccc(Oc3ccccc3)cc2)Oc2ccc(NC(=O)Nc3cccc4ccccc34)cc2C1=O	inactive: 1.01

Structure (SMILES)	relative growth
Cc1ccc(S(=O)(=O)N(C)C[C@@H]2OCCCC[C@H](C)Oc3ccc(NC(=O)CCC(F)(F)F)cc3C(=O)N([C@H](C)CO)C[C@H]2C)cc1	inactive: 1.03
CCCCc1oc2ccccc2c1C(=O)c1cc(I)c(OCCN(CC)CC)c(I)c1	inactive: 0.926
C[C@@H]1CCCCO[C@H](CN(C)C(=O)Nc2ccc(C(F)(F)F)cc2)[C@H](C)CN([C@@H](C)CO)C(=O)c2cc(NC(=O)C3CCCCC3)ccc2O1	inactive: 1.06
COc1ccc(C#Cc2cnc3c(c2)C(=O)N([C@H](C)CO)C[C@H](C)[C@H](CN(C)Cc2ccncc2)O3)cc1OC	inactive: 0.91
OCCOCc1nnn2c1CN(c1ncccn1)CCC2	inactive: 0.962
O=C(C1=C[C@H](c2ccc(Br)cc2)C[C@H](OCc2ccc(CO)cc2)O1)N1CCCCCCC1	inactive: 1.04
C[C@H](CO)N1C[C@H](C)[C@H](CN(C)C(=O)Nc2cccc(F)c2)Oc2cc(C#CC3(O)CCCC3)ccc2S1(=O)=O	inactive: 0.962
Cc1noc(C)c1NC(=O)Nc1ccc2c(c1)C(=O)N([C@H](C)CO)C[C@@H](C)[C@@H](CN(C)C(=O)Nc1ccc(C(F)(F)F)cc1)O2	inactive: 0.974
COc1ccc(NC(=O)Nc2ccc3c(c2)C(=O)N([C@@H](C)CO)C[C@@H](C)[C@H](CN(C)C(=O)Nc2cccc4ccccc24)OCCCC[C@@H](C)O3)cc1	inactive: 1.03
Cc1ccc(S(=O)(=O)N(C)C[C@@H]2OCCCC[C@@H](C)Oc3ccc(NS(=O)(=O)c4ccc(F)cc4)cc3C(=O)N([C@H](C)CO)C[C@H]2C)cc1	inactive: 1.02
C[C@H](CO)N1C[C@H](C)[C@@H](CN(C)S(=O)(=O)c2cccc(F)c2)Oc2ncc(C#CC3CC3)cc2C1=O	inactive: 1.03
O=C1C[C@]2(c3ccc([N+](=O)[O-])cc3)C(=O)N(CCN3CCOCC3)c3cc(CO)ccc3[C@H]2N1C1CCCCC1	inactive: 0.981
Cc1ccc(S(=O)(=O)Nc2ccc3c(c2)CC(=O)N([C@H](C)CO)C[C@H](C)[C@@H](CN(C)Cc2ccc(C(F)(F)F)cc2)O3)cc1	inactive: 1.01
Cc1ccccc1-c1ccc2c(c1)O[C@@H](CN(C)C(=O)Nc1ccc(C(F)(F)F)cc1)[C@H](C)CN([C@@H](C)CO)S2(=O)=O	inactive: 0.976
Cc1noc(C)c1NC(=O)Nc1ccc2c(c1)CC(=O)N([C@H](C)CO)C[C@@H](C)[C@H](CN(C)S(C)(=O)=O)O2	inactive: 1.01
COC(=O)CCc1c(c/2[nH]c1/C=C/1\N=C(/C=C/3\N=C(/C=C/4\N/C(=C2)[C@]2(C)[C@H](C(=O)OC)C(=CC=C42)C(=O)OC)C(=C3C=C)C)C(=C1CCC(=O)O)C)C	inactive: 1.92
C=C/C=C/[C@H]1C(=C)CN([C@H](Cc2ccc(-n3cc(COc4ccccc4/C=C(C)/C=C/C(=O)NO)nn3)cc2)C(=O)OC)[C@@H]1[C@H](O)Cc1ccccc1	inactive: 1.01
Cc1noc(C)c1NC(=O)Nc1cccc2c1O[C@H](CN(C)C(=O)Nc1cccc3ccccc13)[C@@H](C)CN([C@@H](C)CO)C2=O	inactive: 0.905
COc1ccc(S(=O)(=O)N2CCO[C@@H]2CNC(=O)C(=O)NCc2ccncc2)cc1	inactive: 1.01
COc1ccc(S(=O)(=O)N(C)C[C@@H]2Oc3cc(C4=CCCC4)ccc3S(=O)(=O)N([C@@H](C)CO)C[C@H]2C)cc1	inactive: 0.924

Structure (SMILES)	relative growth
Cc1noc(C)c1S(=O)(=O)Nc1ccc2c(c1)C(=O)N([C@H](C)CO)C[C@H](C)[C@H](CN(C)Cc1ccc(C(F)(F)F)cc1)OCCCC[C@H](C)O2	inactive: 1.03
O=C(NCc1ccc2c(c1)OCO2)[C@H]1[C@H](CO)[C@H]2Cn3c(cccc3=O)[C@@H]1N2Cc1cncnc1	inactive: 0.986
COCC#Cc1ccc2c(c1)O[C@H](CN(C)S(=O)(=O)c1ccc(F)cc1)[C@H](C)CN([C@H](C)CO)S2(=O)=O	inactive: 1.02
C[C@H]1CN([C@@H](C)CO)C(=O)c2cccc(NC(=O)c3ccc(-c4nccs4)cc3)c2O[C@@H]1CN(C)CC1CCCCC1	inactive: 1.04
C[C@@H]1CN([C@H](C)CO)C(=O)c2cccc(NC(=O)Nc3ccccc3)c2O[C@@H]1CN(C)C(=O)Nc1ccc(C(F)(F)F)cc1	inactive: 1
O=C(O)CCn1ccnc1	inactive: 0.995
COc1ccc(S(=O)(=O)Nc2ccc3c(c2)CC(=O)N([C@@H](C)CO)C[C@@H](C)[C@H](CN(C)S(=O)(=O)c2c(C)noc2C)O3)cc1	inactive: 1.05
O=C(O)CCC/C=C\C/C=C\C/C=C\C/C=C\CCCCCO	inactive: 1
Cc1noc(C)c1NC(=O)Nc1ccc2c(c1)C(=O)N([C@@H](C)CO)C[C@@H](C)[C@@H](CN(C)S(=O)(=O)c1c(C)noc1C)O2	inactive: 1.01
O=C1O[C@@H]2C[C@H]1N(C(=O)[C@@H]1CC=CCC1)C2	inactive: 0.964
C[C@@H]1CN([C@H](C)CO)C(=O)c2cc(NC(=O)Nc3cccc4ccccc34)ccc2O[C@H]1CN(C)Cc1ccccc1	inactive: 0.979
Cn1c(=O)c2c(nc(SCSc3nc4c(c(=O)n(C)c(=O)n4C)n3C)n2C)n(C)c1=O	inactive: 0.966
Cc1nc2ccccc2n1Cc1ccc(Cl)cc1	inactive: 0.544
COc1ccc(CN(C)C[C@@H]2OCCCC[C@@H](C)Oc3ccc(NS(=O)(=O)c4ccccc4)cc3C(=O)N([C@H](C)CO)C[C@@H]2C)cc1	inactive: 1.03
CCN1CC(CCN2CCOCC2)C(c2ccccc2)(c2ccccc2)C1=O.Cl (stereo not given)	inactive: 1.09
CC(=O)Nc1cc2c(s1)CCCC2	inactive: 0.97
Cc1noc(C)c1NC(=O)Nc1ccc2c(c1)C(=O)N([C@H](C)CO)C[C@@H](C)[C@@H](CN(C)S(=O)(=O)c1ccc(F)cc1)OCCCC[C@H](C)O2	inactive: 0.98
COc1ccccc1-c1ccc2c(c1)O[C@H](CN(C)C(=O)c1cccnc1)[C@H](C)CN([C@@H](C)CO)S2(=O)=O	inactive: 1.03
C[C@@H]1CCCCO[C@@H](CN(C)S(=O)(=O)c2cccs2)[C@H](C)CN([C@@H](C)CO)C(=O)c2cc(NC(=O)CCC(F)(F)F)ccc2O1	inactive: 1.02
COC(=O)[C@H](Cc1ccccc1)N1CC2=C[C@@H](C3CC3)n3c(=O)n(C)c(=O)n3[C@H]2[C@@H]1[C@@H](O)CCn1cc(-c2cccc(/C=C/C(=O)NO)c2)nn1	inactive: 1.03
